# Assay results reported in the supplement of paper PMC3334620.
# Whole data set: some 33,000 sequences, median “E-score (-0.5 to 0.5)” near -0.035, cut for the highest 2% near 0.34. Some of the results follow.
# Biological target: T1, Mot3 (UniProt P54785)
# T1 sequence: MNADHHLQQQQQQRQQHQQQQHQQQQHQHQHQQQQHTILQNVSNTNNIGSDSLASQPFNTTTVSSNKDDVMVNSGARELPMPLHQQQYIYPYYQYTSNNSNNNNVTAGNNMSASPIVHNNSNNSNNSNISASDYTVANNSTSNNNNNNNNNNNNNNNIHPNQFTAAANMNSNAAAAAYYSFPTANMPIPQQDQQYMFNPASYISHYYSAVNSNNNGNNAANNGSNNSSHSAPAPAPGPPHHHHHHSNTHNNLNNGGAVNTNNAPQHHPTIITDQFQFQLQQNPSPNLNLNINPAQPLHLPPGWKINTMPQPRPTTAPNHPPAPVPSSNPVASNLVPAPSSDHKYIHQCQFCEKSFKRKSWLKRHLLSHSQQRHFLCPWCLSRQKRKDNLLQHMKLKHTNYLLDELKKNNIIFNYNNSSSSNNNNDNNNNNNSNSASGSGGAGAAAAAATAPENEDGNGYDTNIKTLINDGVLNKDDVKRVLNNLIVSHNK
# Test: PBM E-score (8-mer binding enrichment) (E-score (-0.5 to 0.5)); higher = stronger / more preferred TF binding; most listed sequences are background and not binding sites
# Conditions: protein concentration: 200 nM; construct: GST-full length
# Method in brief: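 Using PURExpress in vitro transcription/translation, GST-tagged yeast transcription factors were made in full-length or DNA-binding-domain form. These were applied at about 100-200 nM to double-stranded universal all-10-mer Agilent arrays, and bound protein was detected with fluorescent anti-GST. Scans were normalised with masliner before the Universal PBM Analysis Suite assigned E-scores to ungapped eight-base words pooled with their reverse complements.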
row,Sequence,PBM E-score
1,CCCGCACG,-0.204
2,CCGCTGAC,-0.283
3,AGTGAAAA,0.0385
4,CAGATATC,-0.0408
5,ACAAAGTC,0.146
6,ACGGTGCC,0.343
7,ACTAGACT,-0.302
8,AGTGTCAA,-0.0255
9,CGGGACCG,-0.297
10,GAATCACC,-0.0847
11,GTATCGCA,-0.129
12,CCGCCTGA,-0.217
13,ATGAGCAT,0.0104
14,ACTGGTCT,-0.0925
15,CGCAGTTA,-0.0494
16,AATAAGCC,-0.215
17,AGCGATGA,-0.0295
18,ATGAGAAA,0.0957
19,TAAGACGA,0.125
20,CAGGTTTA,0.0132
21,AACTACTA,0.106
22,GCGTCAGA,-0.0838
23,GCCGATTA,-0.0449
24,ACATCACA,0.182
25,CCTACTAC,0.0289

row,Sequence,PBM E-score
1,CCAGGCCC,-0.101
2,ATTGCCCC,-0.176
3,ATCCCAAA,-0.183
4,TCAATCGA,-0.00745
5,AGACGCCT,0.0148
6,CATTAGGG,-0.0155
7,AAAGTAGT,0.132
8,GATTACCA,0.034
9,ACGTAGTG,0.0413
10,AGAAACAG,0.128
11,CAGAGTGG,-0.165
12,AGGCCAGG,-0.0356
13,CTAATATA,0.179
14,AAGACGCC,-0.225
15,ATCAAAAG,-0.134
16,ATGAGTAC,0.075
17,CCTAGGTC,-0.251
18,AACTTTTA,0.204
19,CCTCGTAC,0.00505
20,TAACTGGA,-0.17
21,GCCGTGCA,-0.0598
22,GGCCTACC,-0.0921
23,CTGACAAG,0.111
24,GGAACCCC,-0.0529
25,CTGTCAAG,-0.0561

row,Sequence,PBM E-score
1,GCTTTACC,0.214
2,CCTCAAAA,-0.0394
3,ACAAGTAG,0.0555
4,AACTCTAC,-0.0496
5,CAACCAAA,-0.0417
6,AGGGAGAA,-0.141
7,CCACTACA,0.127
8,CCTCTTAA,0.0272
9,CATTGCTA,0.0475
10,AAGGTCTG,-0.0775
11,ATTTCGCA,0.0809
12,CCAATTCG,0.0916
13,AGTAAGCC,-0.0435
14,CTCACATC,-0.0901
15,CCCAAAGG,-0.0392
16,AGATAAGC,-0.0282
17,CGTAAGTA,0.165
18,AGTAAAGC,0.0727
19,TCCTTTCA,0.044
20,CCTGAGAC,-0.0172
21,ACGATCGG,-0.0926
22,CGCCGTTC,-0.0008
23,AGGGACCC,-0.368
24,GAGCTACA,0.0235
25,CATATATA,0.23

row,Sequence,PBM E-score
1,AGACAATG,0.058
2,AACAGGAC,0.19
3,AACCGCCG,-0.0916
4,AACCGTTA,0.0683
5,GACCCATA,-0.107
6,GATAATGA,-0.0692
7,AAATGCGC,0.0418
8,GTGCAATA,0.161
9,CATCGTAA,0.175
10,ACTCTATA,0.036
11,GGTCATCA,-0.158
12,ACTCACGC,-0.0749
13,AGGTGTCC,0.173
14,AAGAAAGT,0.0197
15,CAAGTTCG,0.0704
16,AGAGATCA,-0.211
17,CTGTAATC,0.111
18,ATCGAAAT,-0.0873
19,ACGGAACT,-0.186
20,CAAGATGA,0.0463
21,TAACGGGA,-0.0233
22,ACCCAAGG,7e-05
23,TATCAGCA,-0.0377
24,ATCGACTA,-0.0691
25,CGGACGAC,-0.152

row,Sequence,PBM E-score
1,ATATGTAA,0.346
2,ATAATGGG,-0.105
3,CAAGATAA,0.128
4,AGACCAGC,-0.28
5,ACTCCGTA,-0.323
6,ACGGTTCC,0.0364
7,GACCGCAC,-0.238
8,TGGCACCA,0.044
9,CTTATCGC,-0.156
10,AGCGCGAT,-0.0166
11,ATTGTGGG,-0.142
12,GCAGTCCA,-0.197
13,ATCTGGGC,-0.253
14,ATTCTGCA,-0.0758
15,GCTCCGAC,-0.0792
16,ACCTAAAG,0.027
17,GTCAAGAC,-0.0412
18,CCAAACCG,-0.218
19,ATGCGCCA,-0.028
20,AGACGTTC,-0.008
21,CATGGTTC,0.101
22,ATTGAGGC,0.0776
23,CTTGTGAC,-0.0252
24,CCATACCA,-0.07
25,ATGGACCG,-0.129

row,Sequence,PBM E-score
1,ACGCACCT,0.129
2,AATATGGA,0.0185
3,ATACAGCC,-0.0474
4,CACCCCGC,-0.277
5,ACTTGGCC,-0.213
6,GGTCTTAC,-0.136
7,CAGGTTCC,0.271
8,AGCTCAGA,-0.181
9,CCGCTTGC,-0.193
10,AACTGGAA,-0.043
11,CGCCTTCA,0.109
12,GAGGAACC,0.255
13,AGTGTGTG,0.051
14,CATCAATC,-0.0534
15,CTTTCTAC,0.182
16,CAGTGCGG,-0.235
17,CACTCAAA,0.107
18,CGGGCAGA,-0.00558
19,AGAAGACG,-0.0931
20,GAACAACA,0.236
21,ATTACATA,0.406
22,AGATTACT,0.101
23,CTAAACTC,0.0609
24,TCATTACA,0.359
25,AGATACCT,-0.096

row,Sequence,PBM E-score
1,CTAGAAAG,-0.108
2,GCGGTGTA,0.162
3,AACGTGTA,0.415
4,AAAGACGG,-0.233
5,CGACTTTA,0.101
6,TGAATGAA,0.0868
7,GGGCAATA,-0.132
8,ATATCAGC,-0.144
9,AACGAAGT,0.0591
10,GACGGCGA,-0.167
11,ACATTCCG,-0.0576
12,AAGCGAAA,0.0942
13,ATGATGAC,-0.179
14,AATCAAAG,-0.0608
15,ACCGTGGC,-0.206
16,AATTAAAG,0.158
17,AGTCTATA,-0.0584
18,CAGGGCTA,-0.157
19,AACACATG,0.269
20,CTCAGCAA,0.02
21,AGTTAAAG,0.178
22,CCACTGTC,-0.302
